These results are taken from ChEMBL document CHEMBL4888484, “Replenishing the malaria drug discovery pipeline: Screening and hit evaluation of the MMV Hit Generation Library 1 (HGL1) against asexual blood stage Plasmodium falciparum ,using a nano luciferase reporter read-out” (2022).

Hit rate of the full screen: of about 150,000 compounds, about 540 (0.36%) showed an effect of 50% or more. The list shows a part of the results.

In the assay the test system is Plasmodium falciparum. As to the kind of experiment: Primary screen in NF54 nanoGlo assay, in single point, at 2uM, 72h; a lower Z score goes with more inhibition. The format is functional, Erythrocyte. Conditions: timepoint 72 hour.
By % Inhibition is commonly meant the drop in the measured response relative to a control, in per cent. Regarding `O=C(NCCc1c[nH]cn1)c1ccc(NC(=O)C2CCC2)cc1`, the “% Inhibition” value is given as -10% and the Z score was 1.84.
For `Cc1ccc(NC(=O)Cc2nnc(-c3cnccn3)o2)c(C)c1` the same measures were -13% and 1.26.
Take `O=C([C@H]1CCc2nccn2C1)N1CCCN(CC2CCC2)CC1`: the “% Inhibition” value amounted to 4% and the Z score was -0.59.
Taken in the same sequence, the figures for `Cc1cc(Cl)ccc1S(=O)(=O)N1CCn2c(nn(CC3CC3)c2=O)C1` were -10% and 1.78.
For `CS(=O)(=O)NCCc1cccc(Cl)c1` the same measures were -4% and 0.84.
Turning to `O=c1n(Cc2ccc3c(c2)OCO3)nc2c(S(=O)(=O)N3CCOCC3)cccn12`, the “% Inhibition” value is given as 3% and the Z score is reported as -0.56.
For `Cc1cc(Oc2cnn(C)c(=O)c2Nc2cccc(C(=O)NCc3ccco3)c2)ccc1Cl` the same measures were -25% and 2.23.
For `CCOc1ncccc1-c1ncccc1C(=O)N1CCCC1`, the “% Inhibition” value is -3% and the Z score stood at 0.46.
For `COc1ccccc1CCN1CC(O)=C(c2nc(C)cs2)C1=N` the same measures were -7% and 0.7.
For `CC(C)N(Cc1nccn1C)C(=O)c1cccc(-c2cn[nH]c2)c1` the same measures were 2% and -0.36.
Taken in the same sequence, the figures for `Cc1nc(CN2CCC(N3C[C@H](COc4ccc(F)cc4)OCC3=O)CC2)n(C)n1` were 0% and -0.01.
For `O=C(CCc1cc2n(n1)CCNC2)Nc1cc(F)cc2c1NC(=O)CC2`, the “% Inhibition” value is on record as -13% and the Z score stood at 1.56.
Taken in the same sequence, the figures for `Cc1nc(CN2CCN(Cc3c(C)cccc3C)CC2)n[nH]1` were -1% and 0.17.
Taken in the same sequence, the figures for `COc1cc(-c2nc(Cn3cnc4ccccc43)c(C)o2)cc2c1OCO2` were -10% and 1.37.
In the case of `O=C1C2ON(c3ccccc3)C(c3ccncc3)C2C(=O)N1c1ccc(Cl)c(Cl)c1` (centres undefined), the “% Inhibition” value is -17% and the Z score was 1.86.
Taken in the same sequence, the figures for `CCC(NC(=O)C1CC12CCOCC2)c1ccc(Cl)cc1` (centres undefined) were -9% and 1.8.
For the molecule `CC[C@]1(O)CCN(c2nc(C(N)=O)cs2)C[C@@H]1O`, the “% Inhibition” value stood at 1% and the Z score is recorded as -0.2.
For `O=C(c1cc2sccc2[nH]1)N1CC[C@@]2(CCCN(CC3CC3)C2=O)C1` the same measures were -10% and 1.7.
For `O=S(=O)(CC1CCCC1)NCC1(CN2CCCC2)CC1` the same measures were -13% and 1.63.
Take `N#CCC1CCN(C(=O)Nc2ccc3nscc3c2)CC1`: the “% Inhibition” value was -2% and the Z score is given as 0.26.
With `C[C@H](c1cccc(O)c1)c1nc(C2CCC2)no1`, the “% Inhibition” value is on record as 7% and the Z score is listed as -0.78.
Taken in the same sequence, the figures for `Cc1cnn(Cc2ccccc2Cl)c1NC(=O)Cc1nonc1C` were -9% and 0.9.
Turning to `Cc1cc(N[C@@H]2C=C[C@H](CO)C2)n2ncnc2n1`, the “% Inhibition” value was -6% and the Z score is recorded as 1.1.
Taken in the same sequence, the figures for `c1csc([C@H](NCc2nc3ccccc3s2)c2ccc3c(c2)CCC3)c1` were -4% and 0.69.
Take `O=C(CCN1CCCC1)NC1(C2CCCC2)CC1`: the “% Inhibition” value is on record as -8% and the Z score is listed as 1.38.
Taken in the same sequence, the figures for `Nc1nc2c(o1)oc1nc(-c3ccccc3)cc(-c3ccccc3)c12` were -7% and 1.29.
For `COc1ccc(C)cc1NC(=O)CN1C(=O)NC2(CCCCCCC2)C1=O`, the “% Inhibition” value is on record as 1% and the Z score is given as -0.12.
As for `CCc1cc(NCc2cn([C@H]3CCOC3)nn2)nc(CC)n1`, the “% Inhibition” value is reported as -3% and the Z score was 0.32.
As for `CCCn1cnnc1CN(C)Cc1cc(OC)c(OC)cc1F`, the “% Inhibition” value came to 2% and the Z score is -0.24.
For `O=C(CCOc1ccccc1Br)NCC1CCCC1O` (centres undefined) the same measures were -14% and 2.39.
For `O=C(Nc1cncc(F)c1)N[C@H]1C[C@@H](O)C1` the same measures were -4% and 0.31.
For `Cc1nc2nc(-c3ccco3)nn2c(N2CCN(c3ccccc3F)CC2)c1C` the same measures were 0% and -0.03.
As to `O=S(=O)(NCc1cc(C(F)(F)F)on1)N1CCCCC1`, the “% Inhibition” value is on record as 0% and the Z score was -0.01.
For `CO[C@@H]1C[C@@H](C(=O)N2CC(C)N(Cc3ccccc3)c3ccccc32)N(C(=O)OCc2ccccc2)C1` (some centres undefined) the same measures were 0% and -0.04.
For `COc1ccc(CN2CC[C@H](NC(=O)C3CCC3)C2)cn1` the same measures were -10% and 1.35.
Taken in the same sequence, the figures for `C[C@H](NC(=O)c1nccnc1C(=O)N1CCCCC1)c1ncnn1C` were 2% and -0.29.
For the molecule `CC(C)CCS(=O)(=O)N1CCC2C(CCC(=O)N2C2CC2)C1` (centres undefined), the “% Inhibition” value is recorded as -12% and the Z score is recorded as 1.91.
Taken in the same sequence, the figures for `COc1ccccc1CNC(=O)c1ccc(C)nc1C1CCN(Cc2cc(C)c(C)o2)CC1` were -11% and 1.16.
For `Cc1c(CN2CCCn3nc(CNC(=O)C4CCC4)cc3C2)oc2ccccc12` the same measures were -17% and 1.55.
Taken in the same sequence, the figures for `CCn1ccnc1[C@H]1CCCN(C(=O)c2cnc(-c3cccnc3)nc2C)C1` were -5% and 0.94.
For the molecule `O=C(Nc1ccn(Cc2ccccc2F)n1)c1ccc(COc2ccc(Cl)cc2Cl)o1`, the “% Inhibition” value is given as -36% and the Z score was determined as 4.24.
For `C#CCN(Cc1ccco1)C(=O)C[C@]1(c2ccc(OC)cc2)CC(=O)N(C2CC2)C1=O` the same measures were -14% and 2.32.
